Results as given in article PMC8876412 (Viruses, 2022).

How the values were obtained:
[1] = system: pp28-luciferase CMV; assay: microbe, parasite or virus in culture; conditions: Human betaherpesvirus 5, Hepatocyte, read-out: EC50 in CMV-infected primary human hepatocytes
[2] = system: CMV Towne (IE1/2, UL84, pp65); conditions: HFFs, 72 hpi; for level of viral proteins UL84 and pp65 by Western blot: 3 µM; for viral protein expression by Western blot: concentration given only in Figure 1C; for level of viral proteins (pp65, UL84, IE1/2) by Western blot: 10 µM
[3] = system: ganciclovir resistant pp28-luciferase CMV; design: method as in ref 24 = [24]; conditions: cited from earlier work
[4] = system: pp28-luciferase recombinant Towne CMV; conditions: HFFs; tested at 3–30 µM
[5] = system: pp28-luciferase CMV; assay: Add-on and removal assays; conditions: 3 µM, added or removed at different times, luciferase at 72 hpi, MOI = 0.1 PFU/cell
[6] = system: pp28-luciferase CMV

Compound: CC(C)NC(=O)C1CCN(C(=O)c2cc3sccc3n2Cc2ccc(Cl)cc2)CC1 [Compound 1]
- EC50 [1]: 3.3 ± 0.7 µM
- level of viral proteins UL84 and pp65 by Western blot [2]: reduced
- viral protein expression by Western blot [2]: significant inhibition of protein expression
- in vitro activity against ganciclovir resistant pp28-luciferase CMV [3]: low µM concentrations

Compound: CC(C)NC(=O)C1CCCN(C(=O)c2cc3sccc3n2Cc2ccc(Cl)cc2)C1 (stereo not shown) [Compound 2]
- inhibition of pp28-luciferase CMV (anti-CMV activity, in words) [4]: loss of anti-CMV activity

Compound: CC(C)NC(=O)C1CCN(C(=O)c2cc3ccccc3n2Cc2ccc(Cl)cc2)CC1 [Compound 3]
- inhibition of pp28-luciferase CMV (anti-CMV activity, in words) [4]: loss of anti-CMV activity even at 30 µM
- level of viral proteins (pp65, UL84, IE1/2) by Western blot [2]: no inhibitory activity

Compound: CC(C)NC(=O)C1CCN(C(=O)c2cccn2Cc2ccc(Cl)cc2)CC1 [Compound 4]
- inhibition of pp28-luciferase CMV (anti-CMV activity, in words) [4]: loss of anti-CMV activity even at 30 µM

Compound: O=C(NCCc1ccccn1)C1CCN(C(=O)c2cccn2Cc2ccc(Cl)cc2)CC1 [Compound 5]
- level of viral proteins (pp65, UL84, IE1/2) by Western blot [2]: no reduction

Compound: O=C(NCCc1cccnc1)C1CCN(C(=O)c2cccn2Cc2ccc(Cl)cc2)CC1 [Compound 6]
- level of viral proteins (pp65, UL84, IE1/2) by Western blot [2]: no reduction

Compound: O=C(NCCc1ccncc1)C1CCN(C(=O)c2cccn2Cc2ccc(Cl)cc2)CC1 [Compound 7]
- timing of maximal CMV inhibition [5]: overlapped with that of GCV
- EC50 [1]: 3.4 ± 1.3 µM
- viral protein expression by Western blot [2]: significant inhibition of protein expression

Compound: O=C(NCCc1ccncc1)C1CCN(C(=O)c2cc3ccccc3n2Cc2ccc(Cl)cc2)CC1 [Compound 8]
- timing of maximal CMV inhibition [5]: overlapped with that of GCV
- EC50 [1]: 2.9 ± 0.1 µM
- calculated Bliss coefficient over all combinations ([6]; 8 with MLS8969, NFU1827, MLS8554, MLS8091 and GCV): 1–1.3
- combination effect (in words) ([6]; 8 with newly identified CMV inhibitors and GCV): additive
- level of viral proteins UL84 and pp65 by Western blot [2]: reduced

Compound: Nc1nc(O)c2ncn(COC(CO)CO)c2n1 [GCV, ganciclovir, reference compound]
- Bliss Coefficient ([6]; combination of the labelled compound with Compound 8, ratio observed/expected fold inhibition): 1.3
